PubChem BioAssay AID686979 (National Center for Advancing Translational Sciences (NCATS), 2013)
Where “and” joins values, the source holds several entries; their conditions need not be identical. Equal values may be shown once. Hit rate of the full screen: of about 420,000 compounds, about 50,000 (12%) were called active. Roughly 26% stayed inconclusive and do not appear here. Calls come from the whole dose curve; as a rule, active = well fitted inhibition curve with a large enough effect; inconclusive = small, poorly fitted or top-dose-only effect; inactive = flat fitted curve, though single readings scatter. This is a selection; strong and weak results do not stand in their true shares. A structure can be active in one record and inactive in another.

Experiment: qHTS for Inhibitors of human tyrosyl-DNA phosphodiesterase 1 (TDP1): qHTS in cells in presence of CPT; note: nearly all actives have a fitted effect of over 55% in size
Conditions: chicken DT40 Tdp1-/-;hTDP1 cells + 20 nM CPT, ATP luminescence, 48 h; series mostly up to 46.2 µM; activity change, negative = growth inhibition: at the top concentration
Description: Human tyrosyl-DNA phosphodiesterase 1 (TDP1) is a novel repair gene, and we propose to use it as a new target for anticancer drug development. TDP1 is not an essential protein, but under treatment with topoisomerase I poison (camptothecin: CPT), TDP1 works as a critical factor for cell survival. To directly identify novel TDP1 inhibitors active in a cellular environment, we have knocked-out the Tdp1 gene in chicken DT40 cells (Tdp1-/-) and generated a complemented counterpart cells that contains a stable transfection of the human TDP1 gene (Tdp1-/-;hTDP1 cells). For the primary screen, Tdp1-/-;hTDP1 cells will be exposed to small molecules in the presence or absence of CPT, and their growth kinetics will be evaluated after 48 hours by measuring ATP activity. […] The hit compounds will then be evaluated in the presence or absence of CPT using Tdp1-/- cells. […] In tertiary assays, biochemical gel-based assays will be used to assess whether the hit compounds specifically target TDP1. To this end, we have screened this cell line against the MLSMR in two primary screens. In one screen we add CPT and in the other we screen in the absence of CPT; this AID represents the screen where CPT was present. NIH Chemical Genomics Center [NCGC] NIH Molecular Libraries Probe Centers Network [MLPCN] MLPCN Grant: MH095538 Assay Submitter (PI): Yves Pommier, NCI
DT40-hTDP1 cells with 20 nM Camptothecin (add 20 microL of 1 mM CPT stock in 1 L of cell culture medium) were dispensed at 400 cells/5microL/well in tissue culture treated 1536-well white wall/solid bottom assay plates (Greiner Bio-One North America, NC, U.S.A.) using a Multidrop Combi 8 channel dispenser (Thermo Fisher, Waltham, MA, USA). 23 nL compounds and controls were transferred using the pin tool (Kalypsys, San Diego, CA, USA) to the assay plates. The assay plates were then incubated at 37 masculineC for a minimum 48 hr. Three microL of Cell Titer Glo solution was added to the plates and incubated at RT in dark for 30 min. Luminescence was read using ViewLux (Perkin Elmer) with 1 sec exposure slow speed, high gain and 2x binning.
% is set by controls: 0 for no effect and ±100 for the full control effect; potency is the fitted concentration of half-maximal effect.

Structure (SMILES) | activity change, negative = growth inhibition | Potency
N#CC1=C2SCN(c3ccccc3)CN2C(=O)CC1c1ccccc1Cl (stereo unspecified) | inactive: -16.4% | 
O=C(O)CC(NC(=O)C12CC3CC(CC(C3)C1)C2)c1cccc(Cl)c1 (stereo unspecified) | inactive: 0.315% | 
CC(C)(C(=O)O)c1ccc([C@H](O)CCCN2CCC(C(O)(c3ccccc3)c3ccccc3)CC2)cc1 | inactive: -0.0014% | 
Cc1ccc(CNC(=O)CCCn2nc(C)c3c(C)n(-c4ccccc4)nc3c2=O)cc1 | inactive: -29.3% | 
Cc1cccc(NS(=O)(=O)c2coc(C(N)=O)c2)c1C | inactive: 31.6% | 
Cc1ccc(C2=NN(C(=O)c3ccccc3F)C(c3ccccc3F)C2)cc1 (stereo unspecified) |  | active: 20.6 µM
Cc1ccsc1C(=CCCN1CCC[C@@H](C(=O)O)C1)c1sccc1C | inactive: -9.29% | 
COc1ccc(/C=N/NC(=S)NCC2CCCO2)cc1 (stereo unspecified) | inactive: 2.54% | 
Cc1cccc(NS(=O)(=O)c2cc(C(=O)N3CCCC3)ccc2Cl)c1 | inactive: -3.97% | 
COC(OC)c1ccnc(-c2ccc(OC(=O)c3ccccc3)cc2)n1 | inactive: 41.5% | 
c1cn(CC2(Cn3ccnc3)COC2)cn1 | inactive: 0.124% | 
c1csc(-c2csc3nc(CN4CCOCC4)nc(NCc4ccc5c(c4)OCO5)c23)c1 |  | active: 23.1 µM
CCCN1C2CCCC1CC(NC(=O)NC1CCCCC1)C2 (stereo unspecified) | inactive: 35.8% | 
CCCCc1nc(Cl)c(CO)n1Cc1ccc(-c2ccccc2-c2nnn[nH]2)cc1 | inactive: 18.1% | 
Nc1nonc1C(=O)OCC(=O)N1CCCCC1 | inactive: 30.1% | 
C=CCc1ccccc1OCC(O)CN1CCN(Cc2ccc3c(c2)OCO3)CC1 (stereo unspecified) | inactive: -22.1% | 
Cn1c(=O)[nH]c(=O)c2c1nc(N1CCCCC1)n2CCCSc1nc2ccccc2s1 |  | active: 13 µM
COc1cccc(NC(=O)CSc2nc3ccccc3n2C)c1 | inactive: -23.1% | 
CSCCC(NC(=O)c1ccc(Cl)cc1)C(=O)OCC(C)=O (stereo unspecified) | inactive: 34.2% | 
O=C(NNC(=O)C1CC=CCC1)c1ccccc1Br (stereo unspecified) | inactive: 34.7% | 
COc1ccccc1NC(=S)N1CCN(c2nc(-c3ccccc3)cs2)CC1 |  | active: 18.4 µM
CC1OC(CC(=O)O)CC2=C1C(=O)c1c(O)cccc1C2=O (stereo unspecified) |  | active: 0.103 µM
Cc1nn(C)c(Cl)c1C(=O)NCC(=O)O | inactive: 42.3% | 
CCOC(=O)/C=c1/s/c(=C/c2ccc3cc(OC)ccc3c2)c(=O)n1CC(=O)NCC1CCCO1 (stereo unspecified) |  | active: 16.4 µM

Structure (SMILES) | activity change, negative = growth inhibition | Potency
OCC[C@H]1C[C@H](O)[C@@H](O)[C@]2(OCCc3ccccc32)O1 | inactive: -1.6% | 
COc1ccc(-n2nc(C(=O)NCC(=O)NCCC3=CCCCC3)c3ccccc3c2=O)c(OC)c1 | inactive: 3.55% | 
COc1ccccc1NC(=O)C(C/C=C(\C)Cl)C(C)=O (stereo unspecified) | inactive: 6.38% | 
O=C(NCCc1ccccc1)c1ccc(CS(=O)(=O)c2ccc(Br)cc2)o1 | inactive: -21.4% | 
Cc1c(CC(=O)NCCC(=O)O)c(=O)oc2cc3occ(-c4ccccc4)c3cc12 | inactive: 59.1% | 
CC1(C(=O)OCC(=O)Nc2ccccc2Cl)CC1(Cl)Cl (stereo unspecified) | inactive: 39% | 
COc1ccc(NC(=O)COc2ccc(-c3nn(C)c(=O)c4ccccc34)cc2)cc1 | inactive: -8.62% | 
OC1COC(OCc2ccccc2)C(O)C1O (stereo unspecified) | inactive: 36.9% | 
CCOc1ccccc1NC(=O)CSc1ccc(-c2sc(C)nc2C)nn1 |  | active: 20.6 µM
O=C(Nc1ccc2c(c1)OCCO2)C1CCCN(S(=O)(=O)c2cccs2)C1 (stereo unspecified) |  | active: 13 µM
COc1ccc(CCNC(=O)CSc2cc(=O)[nH]c(N)n2)cc1OC | inactive: 34.3% | 
CC(C)CCNC(=O)CN1N=C(c2ccc(Cl)cc2)CCC1=O | inactive: -0.887% | 
COc1ccc(C2CC(=O)c3c(O)cc(OC4OC(COC5OC(C)C(O)C(O)C5O)C(O)C(O)C4O)cc3O2)cc1O (stereo unspecified) | inactive: 20.6% | 
Cc1ccc(-c2cc(C(=O)Nc3ccc(S(=O)(=O)Nc4onc(C)c4C)cc3)c3ccccc3n2)cc1 | inactive: 16.6% | 
CCOC(=O)C1C(c2ccccc2)N(C)OC1(O)C(F)(F)F (stereo unspecified) | inactive: 8.96% | 
O=C(NCCc1ccccc1)c1ccc(CSc2nc3ccncc3n2Cc2cccc(F)c2)cc1 |  | active: 13 µM
CCN(CC)C(=O)c1sc2c(c1C)c(=O)n(CCc1ccccc1)c(=O)n2Cc1cccc(Cl)c1 |  | active: 23.1 µM
Cc1ccc(C)c(Nc2nn3c(=O)c4ccc(C(=O)N(C)Cc5ccccc5)cc4nc3s2)c1 |  | active: 9.2 µM
CC(NC(=O)Cc1ccc(F)cc1)c1ccc(F)cc1 (stereo unspecified) | inactive: -20.9% | 
CC(C)(C)c1ccc2c(S(=O)(=O)O)c(C(C)(C)C)ccc2c1 | inactive: 7.03% | 
Cc1cccc(-n2ccnc2SCC(=O)Nc2ccc(F)cc2F)c1C |  | active: 16.4 µM
O=C1CCC(=O)N1OCCOc1ccccc1 | inactive: 32.2% | 
CCc1cccc(C)c1NC(=O)c1cc(S(=O)(=O)NCc2ccccc2Cl)ccc1F |  | active: 20.6 µM
CCOc1ccccc1CNC(=O)CCCn1ncn2c(cc3occc32)c1=O | inactive: -26.7% | 

Structure (SMILES) | activity change, negative = growth inhibition | Potency
CCC1Nc2ncnc(N3CCOCC3)c2N(Cc2ccc(Br)cc2)C1=O (stereo unspecified) | inactive: -14.3% | 
COc1ccc(CCCc2nnc(SCC(=O)Nc3cc(C)ccc3C)o2)cc1 | inactive: -33.3% | 
CC(C)NC(=O)CN(c1cccc([N+](=O)[O-])c1)S(=O)(=O)c1ccccc1 | inactive: 34.9% | 
NC1CCN(c2nc3c(cc2F)c(=O)c(C(=O)O)cn3-c2ccc(F)cc2F)C1 (stereo unspecified) |  | active: 11.9 µM and active: 16.4 µM
OCC[C@@H]1C[C@@H](O)[C@H](O)[C@@]2(CCc3ccccc3O2)O1 | inactive: 2.2% | 
O=C(NC1CCN(CCc2c[nH]c3ccccc23)CC1)c1ccccc1 | inactive: -23.1% | 
COc1cc(/C=N/Nc2snc(SC)c2C#N)ccc1O |  | active: 3.98 µM
CCCSc1nsc(NC(=O)C(c2ccccc2)c2ccccc2)n1 |  | active: 18.4 µM
CCC(=O)N1CCc2cc(S(=O)(=O)CCC(=O)N3CCN(c4ccc(Cl)cc4)CC3)ccc21 |  | active: 6.51 µM and active: 8.2 µM
OC[C@@H]1CN(Cc2ccc(-c3ccccc3)cc2)C[C@H](n2cnc3c(N4CCCC4)ncnc32)O1 |  | active: 18.4 µM
O=C(CSCc1ccccc1)NCCc1ccc(F)cc1 | inactive: 49.7% | 
CCOC(=O)CNC(=O)N1CCC(CCC(=O)N(C)Cc2ccccc2)CC1 | inactive: 35.2% | 
CC(=O)OCC(=O)[C@@]1(OC(C)=O)[C@@H](C)C[C@H]2[C@@H]3C[C@H](F)C4=CC(=O)C=C[C@]4(C)[C@@]3(F)[C@@H](O)C[C@@]21C | inactive: -29.8% | 
Cc1ccccc1S(=O)(=O)Cc1ccc(C(=O)NC2CCC(C)CC2)o1 (stereo unspecified) | inactive: 0.991% | 
Cc1c(C(=O)Nc2ccc(S(N)(=O)=O)cc2)oc2ccc(Cl)cc12 | inactive: 34.9% | 
CCOc1c(C)cc(-c2ncccc2O)cc1C | inactive: -22% | 
CCN(CC)C(=O)CSC1=C(C#N)C(c2ccco2)C(C(=O)OCCOC)=C(C)N1 (stereo unspecified) | inactive: 4.96% | 
Cc1noc(C)c1CSc1nc2sc3c(c2c(=O)n1C)CCCC3 |  | active: 11.6 µM
C[C@H](CO)N1C[C@H](C)[C@@H](CN(C)S(=O)(=O)c2ccc(Oc3ccccc3)nc2)OCc2cnnn2CCCC1=O | inactive: 3.54% | 
N/C(Cc1ccc([N+](=O)[O-])cc1)=N\OC(=O)c1ccc2ccccc2c1 |  | active: 9.2 µM
O=C(Nc1c(-c2ccccc2)nc2ccccn12)c1ccccc1F | inactive: -1.85% | 
COc1ccc(Cl)cc1NC(=O)CN(C)C(=O)c1sc2ccccc2c1Cl |  | active: 16.4 µM
COc1ccc(-n2c(=S)[nH]c3cc(C(=O)NCc4cccnc4)ccc3c2=O)c(OC)c1 | inactive: -4.58% | 
Cc1ccc(S(=O)(=O)N(CC2CO2)c2ccccc2[N+](=O)[O-])cc1 (stereo unspecified) |  | active: 11.6 µM

Structure (SMILES) | activity change, negative = growth inhibition | Potency
CC(=O)c1ccc(NC(=O)Nc2ccc3c(c2)nc(C)n3C)cc1 | inactive: 33.9% | 
COc1cc2c(cc1OC)C(C(=O)O)C(c1ccc(C)o1)N(C)C2=O (stereo unspecified) | inactive: -5.54% | 
CCCCN1CC[C@H]2C=CC[C@@H](C(=O)NCc3ccc(OC)cc3)[C@H]2C1=O | inactive: -17.7% | 
C[C@H](CO)N1C[C@H](C)[C@H](CN(C)C(=O)Nc2ccc(N3CCN(C)CC3)cc2)OCc2cnnn2CCCC1=O | inactive: 0.542% | 
CC(C)(C)CC(C)(C)c1ccc(O)c(Cc2ccc(Cl)cc2Cl)c1 | inactive: -4.94% | 
CN(CCCC(=O)Nc1ccncc1)S(=O)(=O)c1ccc(Cl)cc1 |  | active: 16.4 µM
CC1c2ccccc2CN1CC1=NCCN1 (stereo unspecified) | inactive: 4.56% | 
Cc1cc(C)cc(SCc2noc(C(=O)NCC3CCCO3)c2C(=O)O)c1 (stereo unspecified) | inactive: 43.4% | 
Cc1c(Cl)cnc(NC(=O)COC(=O)C(NC(=O)c2ccco2)C(C)C)c1Cl (stereo unspecified) | inactive: -3.38% | 
COc1cccc(OCC(=O)Nc2ccccc2NC(C)=O)c1 | inactive: 4.28% | 
Nc1ccc(CCNc2ncnc3c2ncn3C2OC(CO)C(O)C2O)cc1 (stereo unspecified) | inactive: 39.6% | 
COn1c(-c2ccccc2)nc2ncccc21 | inactive: 4.73% | 
NC(N)=Nc1nc(CSCC/C(N)=N/S(N)(=O)=O)cs1 | inactive: -7.31% | 
COC(=O)/C=C1\SC(=NC(=O)c2ccc(OC)cc2)NC1=O | inactive: -27.8% | 
O=C(Nc1nnc(S(=O)(=O)N2CCCCCC2)s1)c1ccccc1F | inactive: -21.7% | 
COc1ccc([C@@H]2CC(=O)c3c(O)cc(O[C@@H]4OC(CO[C@@H]5OC(C)[C@H](O)[C@H](O)C5O)[C@@H](O)[C@@H](O)C4O)cc3O2)cc1O (stereo partly specified) | inactive: 10.2% | 
CC(=O)N1CCCc2ccc(NS(=O)(=O)c3ccc(C)c(C)c3)cc21 | inactive: 11.9% | 
C[C@@H]1CN([C@H](C)CO)C(=O)CCCn2nncc2CO[C@H]1CN(C)S(=O)(=O)c1ccc(Cl)cc1 | inactive: -13.5% | 
CCC[C@H]1COCCS(=O)(=O)N1Cc1ccccc1 | inactive: -0.574% | 
C[C@@H]1CN([C@@H](C)CO)C(=O)c2cc(NC(=O)CCC(F)(F)F)ccc2O[C@H]1CN(C)Cc1ccc(Cl)c(Cl)c1 |  | active: 20.6 µM
CCN(CC)c1ccc(N2C(=O)/C(=C/c3cccs3)SC2=S)cc1 | inactive: -28.5% | 
CC(C)C(NC(=O)Cc1ccccc1)C(=O)N1CCN(c2cccc(Cl)c2)CC1 (stereo unspecified) |  | active: 4.61 µM
COC(=O)C(=Cc1ccc(OCc2ccc([N+](=O)[O-])cc2)c(OC)c1)C(=O)OC |  | active: 9.2 µM
CCOC(=O)c1ccc(-c2ccc3c(=O)c4ccccc4n(C)c3c2)cc1F |  | active: 14.6 µM
